# From publication PMC12136788
# Some of the results follow.
# B1: chr19:41261474:41261596:+|3pUTR|ENSG00000167601|msi1|FALSE|unique (ssRNA)
# RNA: GGGAGUUCUACAGUCCGACGAUCUCUAAAGGUCCACAGGUCUAGACUAUUAGGUGCAAUUUCAAGGUUCUAACCCUAUACUGUAGUAUUCUUUGGGGUGCCCCUCUCCUUCUUAGCUAUCAUUGCUUCCUCCUCCCCAACUGUCAACAGAGGAUUGAGCAUCA
# B2: chr10:73423578:73424772:-|three_prime_utr|ENSG00000166343|control|control|control (ssRNA)
# RNA: GGGAGUUCUACAGUCCGACGAUCCCAGUAUACUGCAGUGCAUACUAUAUCAUGUUUCUUGGAAGCUCCUGUCAGCUGGAUAAUAGGCAAUUAGAAGAGAAAGUGGACGGCGGGAUUUAAAUAGAUCAUAACUGGACAUCUGGACAACAGAGGAUUGAGCAUCA
# B3: chr9:15468732:15468834:-|CDS|ENSG00000164985|unk|total|mutant (ssRNA)
# RNA: GGGAGUUCUACAGUCCGACGAUCAAUCCGGAAAACAAUUAUGAUGAAUGUAUAUUGUUUUCUCAGAUACGGCGAUUCAAAGUCCGUCAGGUAAUCAUGGAAAAGUCUACAAUGUUGUAUAACAAGUUUAAGAACAUGUUCUUGCAACAGAGGAUUGAGCAUCA
# B4: chr6:1612588:1612689:+|3pUTR|ENSG00000054598|msi1|total|mutant (ssRNA)
# RNA: GGGAGUUCUACAGUCCGACGAUCUUUAUUCAUGGACUUGUUUUAAAAUGUAAAUUGCAACACCGUAAUUUAUUUUUAAUUUGCCGUUGGAUGUCGUGGACCAAACGCCAGAAAGUGUUCCCAAAACCUGACGUUAAAUUGCCUCAACAGAGGAUUGAGCAUCA
# B5: chr1:198253062:198253183:+|CDS|ENSG00000151414|unk|total|mutant (ssRNA)
# RNA: GGGAGUUCUACAGUCCGACGAUCAUGGGCUAUAAUACAUCCGCCAACUUUCGAACCGAAAAGAAAAUUGGUCGCGGACAAUUCCGUGAAGUUUACCGAGCAGCCUGUCUCUUGGAUGGAGUACCAGCCGCUUUAAAAAAAGUGCAACAGAGGAUUGAGCAUCA
# B6: chr12:48342538:48342639:-|3pUTR|ENSG00000167528|unk|FALSE|unique (ssRNA)
# RNA: GGGAGUUCUACAGUCCGACGAUCUUGUUAAACAUUUUGAGUAUCACUCUUGCAUACUGUUACUAUUAUAUUUUCUCUAUAUAUAGACAGAAAGGCCAUUUUAGAAUAUUAAAGGCUCUGAAAAUUUCUGCAGUAGACCCAACUCAACAGAGGAUUGAGCAUCA
# B7: chr9:130903550:130903651:-|3pUTR|ENSG00000130720|msi1|total|mutant (ssRNA)
# RNA: GGGAGUUCUACAGUCCGACGAUCAAAUACCCGGCAUUAUGGGGACAGAGAGCAGGGGGCAGACAGCACCCCUGGAGUCCUCCCCGCAGAUCGUGGGGAACGUCAGGUCUCUCUGAGGUCAGGUCUGAGGCCAGUAUCCUCCAGCAACAGAGGAUUGAGCAUCA
# B8: chr12:50222030:50222167:-|CDS|ENSG00000050405|unk|FALSE|bound_elsewhere (ssRNA)
# RNA: GGGAGUUCUACAGUCCGACGAUCAUCCAGGCAUGAAGUAGAAAAAUCAGAAAUCAGUGAAAACACAGAUGCUUCGGGCAAAAUAGAGAAAUAUAAUGUUCCGCUGAACAGGCUUAAGAUGAUGUUUGAGAAAGGUGAACCAACCAACAGAGGAUUGAGCAUCA
# B9: chr2:32415991:32416109:+|CDS|ENSG00000115760|unk|FALSE|unique (ssRNA)
# RNA: GGGAGUUCUACAGUCCGACGAUCUGACAUUUCUACUCUUGGACACCUGGUAAUAACCACUCAGGGAGGAUAUGUAAAAAUACUAGAUCUUUCAAACUUUGAAAUUUUGGCCAAAGUGGAGCCUCCCAAAAAGGAGGGCACUGACAACAGAGGAUUGAGCAUCA
# B10: chr1:965281:965395:+|3pUTR|ENSG00000187961|unk|total|mutant (ssRNA)
# RNA: GGGAGUUCUACAGUCCGACGAUCCCAUCCGUUCACGUCUCUGCAUCCAUUCCUUCAUGUCUUUAUUCCGUUGUUUAUUUAUUCCGUUAUUUAUCUUAUUUAUUGAGGGGUGAGGAGUGCCACGGCUGCCCGUUUACACCUUUACAACAGAGGAUUGAGCAUCA
# B11: chr12:120764159:120764260:-|3pUTR|ENSG00000157837|msi1|total|mutant (ssRNA)
# RNA: GGGAGUUCUACAGUCCGACGAUCACACACACACCGAUAUAUAUGAAUAAACAAAAAUGAAAUCCUGCUAAGAUCACGCUGUGCCGCUGACAGGGGCUUGCUGUCGUUUUGAGCAUGUCGAGCAGUUUACUGUGGCUUCCUUGUCAACAGAGGAUUGAGCAUCA
# B12: chr14:103559255:103559356:-|3pUTR|ENSG00000166170|msi1|total|mutant (ssRNA)
# RNA: GGGAGUUCUACAGUCCGACGAUCGCUUAACGGGGUGGGGUUUUUUUGUUUGUUCAGACAGUCUGUUCUUUUGUAAACAUUUUCCGUUGGAAAAACAGCAUCUGCAUUUUCCCCAUCCUCUACGUUUCCGAGAGGAAUCUUGUUCAACAGAGGAUUGAGCAUCA
# B13: chr15:90882754:90882855:+|3pUTR|ENSG00000140564|msi1_unk|FALSE|overlapping (ssRNA)
# RNA: GGGAGUUCUACAGUCCGACGAUCCACUUUGUGAUUAUUUCACUUUAGAUGCUGAUGAUUUGUUUUUGUAUUUUUAAUGGGGGUAGCAGCUGGACUACCCACGUUCUCACACCCACCGUCCGCCCUGCUCCUCCCUGGCUGCCCCAACAGAGGAUUGAGCAUCA
# B14: ENSG00000205339:stop:overlap|stop_codon|ENSG00000205339|stop_codon|NA|stop_codon (ssRNA)
# RNA: GGGAGUUCUACAGUCCGACGAUCGGCUCGCCACAACCUCCGCCUCCCGGAUUCGGGCAAUUCUCCUGCCUCAGCCUCUUGAGUAGCUGGGAUUACAGGUGUUAUCUAUCUGAAAAAUAUGAUAACACAGUAUUGGCCUGAUCGCAACAGAGGAUUGAGCAUCA
# B15: chr13:108229279:108229380:+|CDS|ENSG00000139826|unk|FALSE|unique (ssRNA)
# RNA: GGGAGUUCUACAGUCCGACGAUCGCUAAUAGCCUUGGCUUCAUGGUCUUGGGCUCUCUGCCGUAUUUCUCUUUUACCUUUAAUAGUGACUUUUCAUCUGUAUGGAGGCAUUAUCUUACUUUUGUUAAUAUUCAUAUCAAUAGCCAACAGAGGAUUGAGCAUCA
# B16: ENSG00000124766:be:win_2951|3pUTR|ENSG00000124766|bound_else_gene|NA|bound_elsewhere_windowed (ssRNA)
# RNA: GGGAGUUCUACAGUCCGACGAUCCUUUAUUCCUUCCUUUUCCUUUUUUUCUUUUUUUUUUCUUUUUUUUUUUUUUUUUUUGGUAGUUGUUGUUACCCACGCCAUUUUACGUCUCCUUCACUGAAGGGCUAGAGUUUUAACUUUCAACAGAGGAUUGAGCAUCA
# B17: chr7:139284418:139284519:+|CDS|ENSG00000157741|unk|FALSE|bound_elsewhere (ssRNA)
# RNA: GGGAGUUCUACAGUCCGACGAUCGCAAUGAAUGUACCUGCCAGCAGAGGUAGCAACCUUAACUCAAGCGGAGCUAAUAGGACUAGUCUGUCUGGGGGAACAGGAAGUGGAACACAGGGUGCUACCAAACCAUUGUCUACUCCACAACAGAGGAUUGAGCAUCA
# B18: chr12:56204332:56204433:-|3pUTR|ENSG00000181852|unk|FALSE|unique (ssRNA)
# RNA: GGGAGUUCUACAGUCCGACGAUCUUUUGCCUUUCUCUCACCUUAAUUCCCUUUCUUCCUUACUUUGUUACCUACCCUUAUCUUAGUGCUAACUUCUCUUUCAGGAGGAUGUCUGGGAGUAGUGUGCACUUCACAGCUGCUUUCCAACAGAGGAUUGAGCAUCA
# B19: chr5:43295829:43295944:-|CDS|ENSG00000112972|unk|FALSE|unique (ssRNA)
# RNA: GGGAGUUCUACAGUCCGACGAUCAAUAUCCUAGCUUUAUUCUAAAGUCAAACUUUAAAAUUUCAUGGCUUAUAUGAAUUUCAUAGUUUCCUUGGACUUCUCUUUCAGAGGGAAAUGAUAAAGAUUUUACCUUGAAUGAUUUUGCAACAGAGGAUUGAGCAUCA
# B20: chr5:151662744:151662768:-|3pUTR|ENSG00000113140|msi1_unk|total|mutant (ssRNA)
# RNA: GGGAGUUCUACAGUCCGACGAUCGGGGCUCCCGGGACUGCCAGGCUGUUUCAGCCAGGAAGGCCAAAAUCAAGAGUGAGAUGCCGAAAGUUGUAAAACCGAAAAAGUGGAGUUGGUGAAUCGGUUGUUCUUUCCUCACAUUUGCAACAGAGGAUUGAGCAUCA
# B21: chr13:42321371:42321394:+|3pUTR|ENSG00000023516|msi1_unk|FALSE|overlapping (ssRNA)
# RNA: GGGAGUUCUACAGUCCGACGAUCUUCUGUUUAUGGUGUAAUCAUUCUGAGGUGAGGCUUUUCUUAUUUCCUUUGCAUUUUGCUAGAGCUGUGCUGAGUUCAGCAUUUGCUUAUUUAACCACUACAUAAUGACAGACCAGUUAUCAACAGAGGAUUGAGCAUCA
# B22: chr5:41382290:41382405:-|CDS|ENSG00000182836|unk|total|mutant (ssRNA)
# RNA: GGGAGUUCUACAGUCCGACGAUCGGCCAAAAAGCUCAUGCGGAAAUGGUCCGCCACUCAGACAAUGAAUUUUACUGGCCAGCCCGGAGCUGGAAUUCGUUAUUUUGAUCUUCGAAUUUCCACCAAGCCCAGAGACCCCGACAACAACAGAGGAUUGAGCAUCA
# Molecular target: MSI1 full-length (mouse, UniProt Q61474 1-362)
# Chain of UniProt Q61474 (Q61474 whole entry): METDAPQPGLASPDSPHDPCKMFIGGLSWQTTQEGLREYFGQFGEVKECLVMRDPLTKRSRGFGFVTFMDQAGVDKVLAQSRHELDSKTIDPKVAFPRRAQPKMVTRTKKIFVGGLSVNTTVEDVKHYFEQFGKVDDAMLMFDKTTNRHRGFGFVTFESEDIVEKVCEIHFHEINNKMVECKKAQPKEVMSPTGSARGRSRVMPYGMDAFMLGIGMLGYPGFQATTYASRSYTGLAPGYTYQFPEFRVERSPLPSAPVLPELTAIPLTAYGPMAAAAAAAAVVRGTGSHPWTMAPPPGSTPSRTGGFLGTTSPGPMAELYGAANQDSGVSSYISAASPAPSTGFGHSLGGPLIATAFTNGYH
# Test: nsRBNS (natural sequence RNA bind-n-seq); RBNS binding buffer (assumed for nsRBNS): 25 mM Tris pH 7.5, 150 mM KCl, 3 mM MgCl2, 0.01% Triton X-100, 500 ug/ml BSA, 20 U/ml SUPERase-In, 4 C; UNK is unkempt and MSI1 is Musashi-1; names of the RNAs are library labels; protein concentration not given here; high values mean tight binding
row,Binder,binding signal
1,B1,3.39 enrichment R
2,B2,3.04 enrichment R
3,B3,0.21 enrichment R
4,B4,0.235 enrichment R
5,B5,0.279 enrichment R
6,B6,10.8 enrichment R
7,B7,0.394 enrichment R
8,B8,7.03 enrichment R
9,B9,0.339 enrichment R
10,B10,8.96 enrichment R
11,B11,0.651 enrichment R
12,B12,0.302 enrichment R
13,B13,0.914 enrichment R
14,B14,0.375 enrichment R
15,B15,4.42 enrichment R
16,B16,3.72 enrichment R
17,B17,0.529 enrichment R
18,B18,1.4 enrichment R
19,B19,0.654 enrichment R
20,B20,0.469 enrichment R
21,B21,0.524 enrichment R
22,B22,0.273 enrichment R
